The campaign covered roughly 370,000 compounds. About 150 (0.041%) were called active. The inconclusive results got no clear call from the source; some entries with a clear call stand among them for comparison. Calls come from the whole dose curve; as a rule, active = well fitted inhibition curve with a large enough effect; inconclusive = small, poorly fitted or top-dose-only effect; inactive = flat fitted curve, though single readings scatter. No potency is given beside an inconclusive call; the fits are too rough.
Biological target: Beta-lactamase (Escherichia coli (strain K12)) (UniProt P00811)
Sequence of UniProt P00811 (P00811 whole entry, looked up): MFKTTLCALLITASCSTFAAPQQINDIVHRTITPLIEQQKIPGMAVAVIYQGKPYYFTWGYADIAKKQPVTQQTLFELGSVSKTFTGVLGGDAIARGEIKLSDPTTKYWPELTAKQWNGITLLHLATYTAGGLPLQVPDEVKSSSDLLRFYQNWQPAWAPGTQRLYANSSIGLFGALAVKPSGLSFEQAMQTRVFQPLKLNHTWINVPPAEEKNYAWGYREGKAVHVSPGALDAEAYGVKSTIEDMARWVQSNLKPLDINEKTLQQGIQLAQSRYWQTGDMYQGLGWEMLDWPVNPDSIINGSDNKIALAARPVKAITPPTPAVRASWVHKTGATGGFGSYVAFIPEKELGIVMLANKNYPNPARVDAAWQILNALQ
Experiment: qHTS Inhibitors of AmpC Beta-Lactamase (assay with detergent); note: nearly all actives have a fitted effect of over 25% in size;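 for activity change, negative = inhibition: 0% = no-compound wells and -100% = no-enzyme wells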
Settings: AmpC hydrolysis of nitrocefin, absorbance 480 nm, 0.01% Triton; activity change, negative = inhibition: at 114 µM (top of the series)
How it was run: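 AmpC (5.3 nM in the dispensed reagent) in 20 mM phosphate pH 7.0 with 0.01% (detergent screen) or 0.0001% Triton X-100 was preincubated with compounds for 15 min at room temperature. Nitrocefin was then added from an 800 uM solution, and hydrolysis was followed at 480 nm.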
Potency is the fitted concentration of half-maximal effect; tags give direction and shape of the fitted curve.

| SMILES | activity change, negative = inhibition | Potency |
| --- | --- | --- |
| O=C(O)/C=C/C(=O)Nc1ccccc1SC(F)(F)C(F)(F)C(F)(F)F | inactive: -2.4% |  |
| Cc1ccc(Cl)cc1NC(=S)NCCCSC1CCCCC1 | inactive: 6.56% |  |
| CCn1cc(C(=O)O)c(=O)c2cnc(N3CCN(C(=S)NC(=O)c4ccc(F)c(F)c4)CC3)nc21 |  | inconclusive [inhibitor, partial curve] |
| Cc1cc(C)n(-c2nc3ccccc3c(=O)n2OCC(=O)Nc2c(C)cccc2C)n1 |  | inconclusive [inhibitor, full curve, poor fit] |
| Cc1cc(C)cc(OC(=O)CCN2C(=O)c3ccccc3C2=O)c1 |  | inconclusive [inhibitor, full curve, poor fit] |
| Cc1ccc(CS(=O)(=O)CCC(=O)NCC2CCCO2)cc1 (configuration not stated) |  | inconclusive [inhibitor, full curve, poor fit] |
| CC(=O)c1c(C)[nH]c(C(=O)NCc2cccc(Cl)c2)c1C |  | inconclusive [inhibitor, full curve, poor fit] |
| CCOC(=O)Cn1cnc2c(nnn2-c2ccc(OC)cc2)c1=O |  | inconclusive [inhibitor, single point] |
| COc1ccccc1CCNC(=O)c1cc(-c2ccncc2)nc2ccc(Br)cc12 | inactive: -3.01% |  |
| CCOC(=O)c1ccccc1NC(=S)N1CCCCC1 |  | inconclusive [inhibitor, full curve] |
| CC(C)(C)OC(=O)N1CCC(c2cc(=O)n3[nH]c(-c4ccc(Cl)cc4)cc3n2)CC1 |  | inconclusive [inhibitor, partial curve, poor fit] |
| COc1cc(OC)c(NC(=O)C(CC(C)C)N2Cc3ccccc3C2=O)cc1Cl (configuration not stated) | inactive: -3.86% |  |
| CCn1cc(C(=O)OCC(=O)c2cc(C)n(-c3ccccc3)c2C)c(=O)c2ccc(C)nc21 |  | inconclusive [inhibitor, partial curve, poor fit] |
| O=[N+]([O-])c1cccc(C2=NC(c3ccccc3)CO2)c1 (configuration not stated) |  | inconclusive [inhibitor, partial curve, poor fit] |
| COC(=O)c1ccc(NC(=O)C(=O)NCCc2csc3nc(-c4ccccc4F)nn23)cc1 | inactive: 3.23% |  |
| NC(=O)c1cc2ccccc2o/c1=N/NC(=O)c1cccc(Cl)c1 |  | inconclusive [inhibitor, full curve, poor fit] |
| O=C(Nc1nc2ccccc2c(=O)[nH]1)c1ccccc1SCc1ccccc1 |  | inconclusive [inhibitor, full curve, poor fit] |
| COc1ccc(CCNC(=O)c2cc(-c3ccc(C)c(C)c3O)n[nH]2)cc1OC |  | inconclusive [inhibitor, full curve, poor fit] |
| CSC1=NC(C(Cl)(Cl)Cl)N=C(c2ccc(C)cc2)N1 (configuration not stated) |  | inconclusive [inhibitor, full curve, poor fit] |
| CCCNCCC(c1ccco1)c1ccccc1OC (configuration not stated) |  | inconclusive [inhibitor, full curve, poor fit] |
| COc1ccc(Cl)cc1NC(=O)COC(=O)C1CCCCC1 |  | inconclusive [inhibitor, full curve, poor fit] |
| Nc1nnc(SCc2ccccc2Cl)s1 |  | inconclusive [inhibitor, full curve] |
| COc1ccc(CCNC(=O)COC(=O)CNS(=O)(=O)c2ccc(SC)c([N+](=O)[O-])c2)cc1 |  | inconclusive [inhibitor, full curve] |

| SMILES | activity change, negative = inhibition | Potency |
| --- | --- | --- |
| Cn1c(SCc2cccc([N+](=O)[O-])c2)nc2c(c1=O)SCC2 |  | inconclusive [inhibitor, single point] |
| COc1cc2nc(=S)n3[nH]c(COc4ccccc4C)nc3c2cc1OC |  | inconclusive [inhibitor, partial curve, poor fit] |
| Cc1ccccc1-n1c(-c2csc3ccccc23)n[nH]c1=S |  | inconclusive [inhibitor, partial curve] |
| CCN(C(=O)COC(=O)/C(C#N)=C/c1ccc(OC)cc1)C1CCS(=O)(=O)C1 (configuration not stated) |  | inconclusive [inhibitor, full curve, poor fit] |
| CC(=O)Nc1cccc(NC(=O)CS(=O)(=O)c2cn(CC(=O)N3CCCC3)c3ccccc23)c1 |  | inconclusive [inhibitor, full curve, poor fit] |
| C/C(N)=C(/C#N)C(=O)COC(=O)c1cccc(O)c1 | inactive: -14.8% |  |
| O=C(O)C1OC(Oc2cc3oc(-c4ccccc4)cc(=O)c3c(O)c2O)C(O)C(O)C1O (configuration not stated) |  | inconclusive [inhibitor, partial curve, poor fit] |
| CCC(C)[C@@H](C(=O)Nc1ccc2c(c1)OCO2)N1Cc2ccccc2C1=O (some centres not stated) |  | inconclusive [inhibitor, full curve, poor fit] |
| CC(C)C[C@H](NC(=O)N1CCn2c1nc1ccccc12)C(=O)NCC1CCCO1 (some centres not stated) | inactive: -1.95% |  |
| CCOCCCNC(=O)Cn1ncc2c([nH]c3ccccc32)c1=O | inactive: 14.9% |  |
| Cc1occc1C(=O)Nc1nnc(-c2ccncc2)s1 |  | inconclusive [inhibitor, full curve, poor fit] |
| COc1cccc(CN2CC=C(c3ccc(F)cc3)CC2)c1 |  | inconclusive [inhibitor, full curve, poor fit] |
| O=C(Cc1ccc(F)cc1)N1CCN=C1SCc1ccc([N+](=O)[O-])cc1 |  | inconclusive [inhibitor, partial curve, poor fit] |
| C=CCOC(=O)C1=C(C)NC(SC)=C(C#N)C1c1ccc(OCC)cc1 (configuration not stated) |  | inconclusive [inhibitor, partial curve, poor fit] |
| O=C(O)COc1ccccc1C(Nc1cccnc1)c1cc(Cl)c2cccnc2c1O (configuration not stated) | inactive: -9.63% |  |
| CCOC(=O)c1nc(S(C)(=O)=O)ncc1N1CCOCC1 | inactive: 1.03% |  |
| COc1ccc(NC(=O)c2cc(C3CC3)nc3c2c(C)nn3-c2ccccc2)c(OC)c1 | inactive: 23.4% |  |
| CCCN(CCC)CCNC(=O)c1cc2c(=O)oc3ccc(C)cc3c2s1 | inactive: -11.3% |  |
| Cc1ccc(N2CC(C(=O)Nc3cccnc3)CC2=O)cc1 (configuration not stated) |  | inconclusive [inhibitor, full curve, poor fit] |
| O=[N+]([O-])c1c(NCCCO)cc(Sc2ccc(Cl)cc2)c2nonc12 | inactive: -7.59% |  |
| CC(C)C(=O)Nc1ccc(C(=O)NNC(=O)c2ccco2)cc1 | inactive: -8.98% |  |
| CCOC(=O)c1sc2nc(CC(=O)OC)nc(NCc3ccc(Cl)cc3)c2c1C |  | inconclusive [inhibitor, full curve, poor fit] |
| CCN(CC)C(=O)c1ccc(NC(=O)c2cc(S(=O)(=O)N3CCCCCC3)ccc2OC)cc1 |  | inconclusive [inhibitor, full curve] |

| SMILES | activity change, negative = inhibition | Potency |
| --- | --- | --- |
| COC(=O)/C=C1\NCCNC1=O | inactive: 10.9% |  |
| Cc1cc(C(C)(C)C)oc1C(=O)N(CC(=O)NC1CCCC1)Cc1ccccc1Cl | inactive: 5.6% |  |
| COC(=O)CSc1nc(N)c2c3c(sc2n1)CCCC3 | inactive: -12% |  |
| COc1ccc(NC(=O)CN(c2ccc(C)cc2)S(=O)(=O)c2c(C)nn(C)c2C)cc1OC |  | inconclusive [inhibitor, full curve, poor fit] |
| CCOC(=O)C1=C(Cc2ccc(C)cc2)C(=O)c2ccccc2C1=O | inactive: -12.3% |  |
| S=c1[nH]nc(-c2ccc3ccccc3n2)n1-c1cc(Cl)cc(Cl)c1 |  | inconclusive [inhibitor, single point] |
| CN1CCN(c2ccc(NC(=O)c3ccc4ccccc4c3)cc2)CC1 | inactive: -6.78% |  |
| CN(C(=O)n1cnc2ccccc21)c1ccccc1 |  | inconclusive [inhibitor, full curve, poor fit] |
| Cc1ccc(-n2c(N)c(C(=O)N3CCOCC3)sc2=S)cc1 |  | inconclusive [inhibitor, full curve] |
| Cc1cccc(CCNC(=O)CCS(=O)(=O)c2ccc3nc(C)sc3c2)c1 |  | inconclusive [inhibitor, full curve] |
| Cc1ccc(NC(=S)NNC(=S)Nc2ccc(C)cc2C)cc1 |  | inconclusive [inhibitor, single point] |
| O=c1c2ccc([N+](=O)[O-])cc2ncn1CCOc1ccccc1 | inactive: 3.69% |  |
| Cc1ccnn1CC(=O)N/N=C/c1ccc2c(c1)OCO2 |  | inconclusive [inhibitor, single point] |
| Cn1c(N2CCOCC2)nc(-c2ccccc2)c1-c1ccccc1 |  | inconclusive [inhibitor, full curve, poor fit] |
| CC(OC(=O)c1cccc(S(=O)(=O)Nc2cccc(C(F)(F)F)c2)c1)C(=O)Nc1ccc2c(c1)OCCO2 (configuration not stated) |  | inconclusive [inhibitor, partial curve] |
| O=C(NCc1ccc(F)cc1)c1ccncc1 |  | inconclusive [inhibitor, full curve, poor fit] |
| COc1ccc(Cl)cc1Nc1nc(N)nc(C(F)(F)F)n1 |  | inconclusive [inhibitor, full curve] |
| Cc1cc2ccccc2n1CCNC(=O)Cc1ccccc1 |  | inconclusive [inhibitor, partial curve] |
| COC(=O)C1CC(=O)N(CCc2c[nH]c3ccccc23)C1 (configuration not stated) |  | inconclusive [inhibitor, full curve, poor fit] |
| CCOc1c(Cl)cc(C2NC(=O)NC(C)=C2C(=O)NCc2ccccc2)cc1OC (configuration not stated) |  | inconclusive [inhibitor, single point] |
| COc1ccc(OC)c(NC(=O)NCCCCc2ccccc2)c1 |  | inconclusive [inhibitor, full curve, poor fit] |

From PubChem BioAssay AID485294 (National Center for Advancing Translational Sciences (NCATS), 2010)
